PMC4468608, “A distinct p53 target gene set predicts for response to the selective p53–HDM2 inhibitor NVP-CGM097” (eLife, 2015)
Further values from the same series stand in other lists.

Test system: cell lines from the Cancer Cell Line Encyclopedia (CCLE)
Assay: High-throughput cell viability assay, CCLE cell line panel (n = 356)
Format: cell-based, human
Protocol: Cell lines were partitioned into sensitive and insensitive groups based on compound potency (IC50). […] All other cell lines were obtained from ATCC (American Type Culture Collection), DSMZ (Deutsche Sammlung von Mikroorganismen und Zellkulturen), and HSRRB (Health Science Research Resources Bank) and cultured in RPMI or Dulbecco's modified Eagle's medium plus 10% FBS (Invitrogen, Carlsbad, CA) at 37°C, 5% CO2.

In the case of `COc1cc2c(cc1OC(C)C)[C@H](c1ccc(Cl)cc1)N(c1ccc(N(C)C[C@H]3CC[C@H](N4CCNC(=O)C4)CC3)cc1)C(=O)C2` [NVP-CFC218], the Amax (8-MG-BA, TP53 MUT) is reported as -29.68%, the sensitivity call (8-MG-BA, TP53 MUT) is reported as “insensitive (Sensitivity call for each compound was applied according to a cut-off of 4 µM for IC50 and -50% for Amax)” and the Amax (769-P, TP53 WT) is reported as -72.79%. For the same compound, the sensitivity call (769-P, TP53 WT) was “sensitive (Sensitivity call for each compound was applied according to a cut-off of 4 µM for IC50 and -50% for Amax)”, the Amax (786-O, TP53 MUT) was -27.93% and the sensitivity call (786-O, TP53 MUT) was “insensitive (Sensitivity call for each compound was applied according to a cut-off of 4 µM for IC50 and -50% for Amax)”. For the same compound, the Amax (5637, TP53 MUT) was 0.50%, the sensitivity call (5637, TP53 MUT) was “insensitive (Sensitivity call for each compound was applied according to a cut-off of 4 µM for IC50 and -50% for Amax)” and the Amax (A2780, TP53 WT) was -77.43%. The sensitivity call (A2780, TP53 WT) was “sensitive (Sensitivity call for each compound was applied according to a cut-off of 4 µM for IC50 and -50% for Amax)”, the Amax (A-204, TP53 WT) was -58.99% and the sensitivity call (A-204, TP53 WT) was “sensitive (Sensitivity call for each compound was applied according to a cut-off of 4 µM for IC50 and -50% for Amax)”. For the same compound, the Amax (A-375, TP53 WT) was -70.39%, the sensitivity call (A-375, TP53 WT) was “sensitive (Sensitivity call for each compound was applied according to a cut-off of 4 µM for IC50 and -50% for Amax)” and the Amax (ACHN, TP53 WT) was -65.30%. The sensitivity call (ACHN, TP53 WT) was “sensitive (Sensitivity call for each compound was applied according to a cut-off of 4 µM for IC50 and -50% for Amax)”, the Amax (AMO-1, TP53 WT) was -96.94% and the sensitivity call (AMO-1, TP53 WT) was “sensitive (Sensitivity call for each compound was applied according to a cut-off of 4 µM for IC50 and -50% for Amax)”. For the same compound, the Amax (AU565, TP53 MUT) was -46.46%, the sensitivity call (AU565, TP53 MUT) was “insensitive (Sensitivity call for each compound was applied according to a cut-off of 4 µM for IC50 and -50% for Amax)” and the Amax (AsPC-1, TP53 MUT) was -30.80%. For the same compound, the sensitivity call (AsPC-1, TP53 MUT) was “insensitive (Sensitivity call for each compound was applied according to a cut-off of 4 µM for IC50 and -50% for Amax)”, the Amax (BDCM, TP53 WT) was -93.74% and the sensitivity call (BDCM, TP53 WT) was “sensitive (Sensitivity call for each compound was applied according to a cut-off of 4 µM for IC50 and -50% for Amax)”. For the same compound, the Amax (BHY, TP53 MUT) was 1.51%, the sensitivity call (BHY, TP53 MUT) was “insensitive (Sensitivity call for each compound was applied according to a cut-off of 4 µM for IC50 and -50% for Amax)” and the Amax (BICR 6, TP53 MUT) was -6.74%. For the same compound, the sensitivity call (BICR 6, TP53 MUT) was “insensitive (Sensitivity call for each compound was applied according to a cut-off of 4 µM for IC50 and -50% for Amax)”, the Amax (BL-41, TP53 MUT) was -3.11% and the sensitivity call (BL-41, TP53 MUT) was “insensitive (Sensitivity call for each compound was applied according to a cut-off of 4 µM for IC50 and -50% for Amax)”. For the same compound, the Amax (BL-70, TP53 MUT) was 5.30%, the sensitivity call (BL-70, TP53 MUT) was “insensitive (Sensitivity call for each compound was applied according to a cut-off of 4 µM for IC50 and -50% for Amax)” and the Amax (BT-549, TP53 MUT) was -22.89%. For the same compound, the sensitivity call (BT-549, TP53 MUT) was “insensitive (Sensitivity call for each compound was applied according to a cut-off of 4 µM for IC50 and -50% for Amax)”, the Amax (BxPC-3, TP53 MUT) was 2.85% and the sensitivity call (BxPC-3, TP53 MUT) was “insensitive (Sensitivity call for each compound was applied according to a cut-off of 4 µM for IC50 and -50% for Amax)”. For the same compound, the Amax (CAS-1, TP53 MUT) was -0.16%, the sensitivity call (CAS-1, TP53 MUT) was “insensitive (Sensitivity call for each compound was applied according to a cut-off of 4 µM for IC50 and -50% for Amax)” and the Amax (CFPAC-1, TP53 MUT) was -38.08%. The sensitivity call (CFPAC-1, TP53 MUT) was “insensitive (Sensitivity call for each compound was applied according to a cut-off of 4 µM for IC50 and -50% for Amax)”, the Amax (CMK-11-5, TP53 MUT) was -25.58% and the sensitivity call (CMK-11-5, TP53 MUT) was “insensitive (Sensitivity call for each compound was applied according to a cut-off of 4 µM for IC50 and -50% for Amax)”. For the same compound, the Amax (COLO 741, TP53 MUT) was 3.97%, the sensitivity call (COLO 741, TP53 MUT) was “insensitive (Sensitivity call for each compound was applied according to a cut-off of 4 µM for IC50 and -50% for Amax)” and the Amax (COLO-679, TP53 WT) was -66.48%. The sensitivity call (COLO-679, TP53 WT) was “sensitive (Sensitivity call for each compound was applied according to a cut-off of 4 µM for IC50 and -50% for Amax)”, the Amax (COV318, TP53 MUT) was 5.06% and the sensitivity call (COV318, TP53 MUT) was “insensitive (Sensitivity call for each compound was applied according to a cut-off of 4 µM for IC50 and -50% for Amax)”. For the same compound, the Amax (COV362, TP53 MUT) was -1.49%, the sensitivity call (COV362, TP53 MUT) was “insensitive (Sensitivity call for each compound was applied according to a cut-off of 4 µM for IC50 and -50% for Amax)” and the Amax (COV434, TP53 WT) was -61.47%. The sensitivity call (COV434, TP53 WT) was “insensitive (Sensitivity call for each compound was applied according to a cut-off of 4 µM for IC50 and -50% for Amax)”, the Amax (COV644, TP53 WT) was -2.94% and the sensitivity call (COV644, TP53 WT) was “insensitive (Sensitivity call for each compound was applied according to a cut-off of 4 µM for IC50 and -50% for Amax)”. The Amax (Caki-2, TP53 WT) was -64.31%, the sensitivity call (Caki-2, TP53 WT) was “sensitive (Sensitivity call for each compound was applied according to a cut-off of 4 µM for IC50 and -50% for Amax)” and the Amax (Calu-3, TP53 MUT) was -11.07%. For the same compound, the sensitivity call (Calu-3, TP53 MUT) was “insensitive (Sensitivity call for each compound was applied according to a cut-off of 4 µM for IC50 and -50% for Amax)”, the Amax (Calu-6, TP53 MUT) was -24.41% and the sensitivity call (Calu-6, TP53 MUT) was “insensitive (Sensitivity call for each compound was applied according to a cut-off of 4 µM for IC50 and -50% for Amax)”. The Amax (Caov-3, TP53 MUT) was -11.01%, the sensitivity call (Caov-3, TP53 MUT) was “insensitive (Sensitivity call for each compound was applied according to a cut-off of 4 µM for IC50 and -50% for Amax)” and the Amax (DB, TP53 MUT) was 12.10%. The sensitivity call (DB, TP53 MUT) was “insensitive (Sensitivity call for each compound was applied according to a cut-off of 4 µM for IC50 and -50% for Amax)”, the Amax (DBTRG-05MG, TP53 WT) was -63.69% and the sensitivity call (DBTRG-05MG, TP53 WT) was “sensitive (Sensitivity call for each compound was applied according to a cut-off of 4 µM for IC50 and -50% for Amax)”. For the same compound, the Amax (DEL, TP53 MUT) was -20.11%, the sensitivity call (DEL, TP53 MUT) was “insensitive (Sensitivity call for each compound was applied according to a cut-off of 4 µM for IC50 and -50% for Amax)” and the Amax (DK-MG, TP53 WT) was -68.71%. The sensitivity call (DK-MG, TP53 WT) was “sensitive (Sensitivity call for each compound was applied according to a cut-off of 4 µM for IC50 and -50% for Amax)”, the Amax (DMS 114, TP53 MUT) was 0.74% and the sensitivity call (DMS 114, TP53 MUT) was “insensitive (Sensitivity call for each compound was applied according to a cut-off of 4 µM for IC50 and -50% for Amax)”. The Amax (DOHH-2, TP53 WT) was -93.70%, the sensitivity call (DOHH-2, TP53 WT) was “sensitive (Sensitivity call for each compound was applied according to a cut-off of 4 µM for IC50 and -50% for Amax)” and the Amax (Detroit 562, TP53 MUT) was -3.06%. The sensitivity call (Detroit 562, TP53 MUT) was “insensitive (Sensitivity call for each compound was applied according to a cut-off of 4 µM for IC50 and -50% for Amax)”, the Amax (EBC-1, TP53 MUT) was -0.69% and the sensitivity call (EBC-1, TP53 MUT) was “insensitive (Sensitivity call for each compound was applied according to a cut-off of 4 µM for IC50 and -50% for Amax)”. For the same compound, the Amax (EFM-19, TP53 MUT) was -9.07%, the sensitivity call (EFM-19, TP53 MUT) was “insensitive (Sensitivity call for each compound was applied according to a cut-off of 4 µM for IC50 and -50% for Amax)” and the Amax (EM-2, TP53 MUT) was -7.05%. For the same compound, the sensitivity call (EM-2, TP53 MUT) was “insensitive (Sensitivity call for each compound was applied according to a cut-off of 4 µM for IC50 and -50% for Amax)”, the Amax (FU97, TP53 MUT) was -1.04% and the sensitivity call (FU97, TP53 MUT) was “insensitive (Sensitivity call for each compound was applied according to a cut-off of 4 µM for IC50 and -50% for Amax)”. The Amax (G-361, TP53 WT) was -62.79%, the sensitivity call (G-361, TP53 WT) was “sensitive (Sensitivity call for each compound was applied according to a cut-off of 4 µM for IC50 and -50% for Amax)” and the Amax (G-402, TP53 WT) was -80.69%. For the same compound, the sensitivity call (G-402, TP53 WT) was “sensitive (Sensitivity call for each compound was applied according to a cut-off of 4 µM for IC50 and -50% for Amax)”, the Amax (GCIY, TP53 MUT) was -4.41% and the sensitivity call (GCIY, TP53 MUT) was “insensitive (Sensitivity call for each compound was applied according to a cut-off of 4 µM for IC50 and -50% for Amax)”. For the same compound, the Amax (GP2d, TP53 WT) was -61.10%, the sensitivity call (GP2d, TP53 WT) was “sensitive (Sensitivity call for each compound was applied according to a cut-off of 4 µM for IC50 and -50% for Amax)” and the Amax (GRANTA-519, TP53 WT) was -70.32%. The sensitivity call (GRANTA-519, TP53 WT) was “sensitive (Sensitivity call for each compound was applied according to a cut-off of 4 µM for IC50 and -50% for Amax)”, the Amax (H4, TP53 WT) was -65.09% and the sensitivity call (H4, TP53 WT) was “sensitive (Sensitivity call for each compound was applied according to a cut-off of 4 µM for IC50 and -50% for Amax)”. For the same compound, the Amax (HARA, TP53 MUT) was -1.75%, the sensitivity call (HARA, TP53 MUT) was “insensitive (Sensitivity call for each compound was applied according to a cut-off of 4 µM for IC50 and -50% for Amax)” and the Amax (HCC70, TP53 MUT) was -10.79%.
